The test has as its system NCI-H322M lung. Briefly: NCI-60 cell line screen, 48 h.

Values joined by “and” are separate entries in the source; they are usually repeats but may differ in a detail not shown here. Equal values may be shown once.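 In this assay, cells in 96-well plates receive the compound at five concentrations for 48 hours. Endpoints are linearly interpolated between the surrounding concentrations. The concentration for 50% growth inhibition is given as GI50. TGI denotes the concentration required for complete inhibition of growth.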 Peptide text beside a SMILES is read from it. * marks the point of attachment. Boc = CC(C)(C)OC(=O)*

On to `CCOC(=O)/C=C(\N=P(c1ccccc1)(c1ccccc1)c1ccccc1)C(F)(F)C(F)(F)C(F)(F)C(F)(F)C(F)(F)F`, for which the TGI is > 100 µM. Regarding `C/C=C1\C(=O)O[C@@H]2C1C[C@@H]1O[C@H]2[C@H](C)CCC/C(C)=C/CC[C@@]1(C)O` (stereo partly specified), the GI50 was 16.1 µM and the TGI amounted to 30.7 µM.

As for `Cc1ccc(Nc2sc(C)cc2C#N)c([N+](=O)[O-])c1`, the TGI was > 100 µM. The same measure, in the same setting: with `N#CC(N=Nc1ccccc1)c1nc2ccccc2o1` (stereo unspecified) the figure was > 100 µM; with `CC(C)Cc1ccc(C(C)/C=C2\CCC(CN3CCCC3)C2=O)cc1` (stereo unspecified), 48.2 µM. Turning to `CC1(C)CCC2(C(=O)O)CC[C@]3(C)C(=CCC4C5(C)CC[C@H](OC6OC(C(=O)O)C(O)C(OC7OC(CO)C(O)C(O)C7O)C6OC6OC(CO)C(O)C(O)C6O)C(C)(C)C5CCC43C)C2C1` (stereo partly specified), the GI50 is 26.1 µM and the TGI amounted to 91.3 µM. For the compound `CCOC(=O)c1cc(=O)oc2c1N(C)c1ncccc1N2`, the TGI was > 100 µM. On the same count and under the same terms, with `CCn1c(-c2ccc(C)cc2)cs/c1=N\C(P(=O)(O)O)P(=O)(O)O` the figure was > 100 µM. Take `C=C1SC(=Nc2ccccc2Cl)N(C(=O)c2sc3ccccc3c2Cl)C1(C)C`: the GI50 was 2.21 µM and the TGI was > 47.4 µM. In the case of `CC(=O)NC1C(OCc2ccccc2)OC(COC(=O)CCCCCNc2ccc([N+](=O)[O-])c3[nH]c4ccc(O)cc4c(=O)c23)C(O)C1OC(C)C(=O)N[C@@H](C)C(=O)N[C@H](CCC(=O)OCc1ccccc1)C(N)=O` (stereo partly specified), the TGI was 11.7 µM. Turning to `Cc1ccc2cccc3c2c1CC1(C3=O)S(=O)(=O)OCCOS1(=O)=O`, the TGI was > 100 µM. Consider `C#Cc1cccc(Nc2ncnc3ccc(-c4cnc(Cl)c(NS(C)(=O)=O)c4)cc23)c1`, for which the GI50 is 0.367 µM and the TGI worked out at 1.95 µM. `COC(=O)[C@H](Cc1ccccc1)NP(=O)(O)OCC1OC(n2cc(C)c(=O)[nH]c2=O)CC1N=[N+]=[N-]` (stereo partly specified): the TGI is > 100 µM.

`CCOC(=O)C#Cc1ccc([N+](=O)[O-])cc1` registered a TGI of 15.4 µM. As to `Nn1c(SCC(=O)NCc2ccccc2)nc2ccccc2c1=O`, the TGI is > 100 µM. For `Cc1ccc(NC(=O)CC/C(CC(=O)c2ccc(Cl)cc2)=N\NC(=O)C(=O)NN)cc1C`, the TGI is > 100 µM. With `c1ccc2c(c1)nnn2CNc1ccc(N2CCOCC2)cc1`, the TGI is > 100 µM. On the same count and under the same terms, with `Cn1c2ccccc2n2c(=O)c3cccnc3c(C#N)c12` the figure was > 100 µM. For `O=C1/C=C/[C@@H](O)[C@@H]2C[C@@H](O)C[C@H]2/C=C/CCC[C@H](CO)O1`, the GI50 was 4.95 µM and the TGI was > 100 µM.

With `Cc1ccc(/C=N/NC2=NCCN2)s1`, the TGI was > 100 µM. For `CN[C@@H](C)[C@H](OP(=O)(O)OC1[C@@H](O)[C@H](O)C(O)[C@H](O)[C@@H]1O)c1ccccc1` (stereo partly specified), the TGI was > 100 µM. The same measure, in the same setting: next, `CC(C)c1cccc(C(C)C)c1N=C(N)C#N`: > 100 µM. On to `CCC(c1ccc(OC)cc1)C(CC)c1ccc(O)c(CN2CCCC2)c1` (stereo unspecified), for which the GI50 is 5.13 µM and the TGI is 18.3 µM. With `Fc1cc(-c2ncc(Cl)cc2Cl)c2cccccc1-2`, the TGI was > 100 µM.

For `CCC1CCCCN1C(=S)N/N=C(\C)c1ccccn1` (stereo unspecified), the GI50 was 0.084 µM and the TGI was 5.99 µM. For the compound `O=c1[nH]c(Nc2cccc(Br)c2)nc2nc[nH]c12`, the TGI is > 100 µM. Regarding `O=C1OC[C@@H]2Cc3c([nH]c4ccccc34)[C@@H](c3cc(O)c(O)c(O)c3)N12`, the TGI was > 100 µM.

`O=C(/C=C/c1cccs1)c1cccc(C(=O)/C=C/c2cccs2)n1`: the TGI was > 100 µM. Still for that read-out and setting: next, `CC([C@H]1CCC2C3CCC4CC5(CC[C@]4(C)C3CC[C@@]21C)c1ccccc1C(=O)N5C)N(C)C` (stereo partly specified): > 100 µM. `CCn1cc(C(=O)N/N=C/c2cccc(F)c2)c(=O)c2cc(F)c(N3CCNC(C)C3)c(F)c21` (stereo unspecified): the GI50 was 1.7 µM and the TGI came to 3.09 µM. Consider `CCOP(=O)(OCC)/C(C#N)=C/c1cccn1N(C)C`, for which the TGI was > 100 µM. As to `CCCCCCCC(=O)OCC1OC(n2cc(F)c(=O)[nH]c2=O)C(NC(=O)OCc2ccccc2)C(OC(=O)CCCCCCC)C1O` (stereo unspecified), the TGI was > 100 µM. As for `O=C1c2cccc3cc([N+](=O)[O-])cc(c23)C(=O)N1CCN1CCCC1`, the GI50 was 1.13 µM and the TGI amounted to 4.98 µM. With `CCOCC(NC(=O)C(CC(C)C)NC(=O)OC(C)(C)C)C(N)=O` (stereo not drawn) (Boc-Leu-Ser(Et)-NH2; configuration not given here), the TGI is > 100 µM.

Turning to `O=C(N/C(=C\c1ccc([N+](=O)[O-])cc1)c1nc2ccc(Cl)cc2[nH]1)c1ccccc1`, the TGI worked out at 87.5 µM. Take `NCCCn1c2c(c3cc4c(cc3c1=O)OCO4)C(=O)c1ccccc1-2`: the GI50 is 0.709 µM and the TGI is 1.96 µM. For `CC1OC(O[C@H]2/C=C/C=C/C=C/C=C/C=C/C=C/C=C/[C@H](C)[C@@H](O)[C@@H](C)[C@H](C)OC(=O)C[C@H](O)C[C@H](O)CC[C@@H](O)[C@H](O)C[C@H](O)C[C@]3(O)C[C@H](O)[C@@H](C(=O)O)[C@H](C2)O3)C(O)C(N)C1O` (stereo partly specified), the GI50 was 20.2 µM and the TGI is 50.3 µM. Consider `COc1ccccc1N1CCN(C(=O)c2ccc(NS(=O)(=O)c3cccc4cccnc34)cc2)CC1`, for which the GI50 is > 100 µM and the TGI was > 100 µM. As for `CC1(C)C(=O)C2(OS(=O)(=O)C(F)(F)F)CCC1C2` (stereo unspecified), the TGI is > 100 µM. Turning to `COC(OC)(c1ccccc1)C(I)I`, the TGI is > 56.6 µM. Consider `Cc1ccc(O)c(-c2csc(NCN3CCN(CNc4nc(-c5cc(C)ccc5O)cs4)CC3)n2)c1`, for which the TGI is > 100 µM.

Regarding `COc1cc2ccc(/C(C)=N/OC(C)=O)cc2cc1OC`, the TGI was > 100 µM. In the case of `COc1cc2ccnc3c2c(c1OC)CC1CC(O)C(OC)CC31` (stereo unspecified), the TGI is > 100 µM. Same read-out and setting: with `Cc1[nH]c2ccccc2c1C1CC(=O)NC1=O` (stereo unspecified) the figure was > 100 µM; with `c1ccc(/N=C2\c3ccccc3CN2c2ccccn2)nc1`, > 100 µM. Turning to `CC[C@@]1(O)C(=O)OCc2c1cc1n(c2=O)Cc2c-1nc1ccccc1c2/C=N\NC(=O)C(N)Cc1cnc[nH]1` (stereo partly specified), the TGI was > 100 µM. `O=C1NC(=O)C(=O)C(c2nc3ccccc3s2)C1=O`: the TGI is > 100 µM. On to `O[C@H]1[C@H](O)[C@H](O)CN2CCC[C@@H](O)[C@H]12`, for which the TGI was > 100 µM. Still for that read-out and setting: next, `O=C1CCCCC[C@]12SC[C@H]1CON=C12`: > 100 µM.

Take `CCOC(=O)/C(C#N)=C\C=C1/C=CNC2=NCCN21`: the TGI was > 100 µM.

Turning to `O=C(NC1CCN(Cc2ccccc2)CC1)c1cc(C(=O)NC2CCN(Cc3ccccc3)CC2)cc(C(=O)NC2CCN(Cc3ccccc3)CC2)c1`, the GI50 was 8.47 µM and the TGI stood at 23.2 µM. Turning to `O=C(O)CN(c1ccccc1)S(=O)(=O)c1ccc(Cl)cc1`, the TGI is > 100 µM.

`O=C(COc1ccc(Cl)cc1)N1N=C(c2ccc([N+](=O)[O-])o2)CC1(O)c1ccccc1` (stereo unspecified): the TGI is 22.4 µM. With `CC12CC3(O)OC(O1)C1(COC(=O)c4ccccc4)C3CC21OC1OC(CO)C(O)C(O)C1O` (stereo unspecified), the TGI was > 100 µM. For `CC(C)(C)N1CC(OC(N)=O)C1`, the GI50 is > 100 µM and the TGI was > 100 µM. For the compound `C=CCCC(C)N(C(=O)OC(C)(C)C)S(=O)(=O)c1ccc(C)cc1` (stereo unspecified), the TGI was > 100 µM. For the compound `C/C(=N\NS(=O)(=O)c1ccc(C)cc1)c1c(O)cc(C)oc1=O`, the TGI is > 100 µM.

Regarding `CCN(CC)CCOC(=O)/C(=C/c1ccc(OC)cc1)c1cc(OC)c(OC)c(OC)c1`, the TGI was > 100 µM. For the compound `NC(Cc1c[nH]c2ccccc12)C(=O)O` (stereo unspecified), the TGI was > 300 µM.

In the case of `C[C@@H](Oc1cc(NS(=O)(=O)N2CCC2)nc(SCc2cccc(F)c2F)n1)[C@@H](O)CO`, the GI50 is > 100 µM and the TGI is > 100 µM.

Regarding `COc1cc(/C=C2\CN(S(=O)(=O)c3ccc(C)cc3)C/C(=C\c3cc(CN4CCCCC4)c(O)c(OC)c3)C2=O)cc(CN2CCCCC2)c1O`, the GI50 was 1.62 µM and the TGI is 3.1 µM. The corresponding values for `Oc1ccc2ccccc2c1N=Nc1ccccn1` are 1.76 µM and 29.5 µM. In the case of `Clc1ccc2c(NCCNc3ccnc4cc(Cl)ccc34)ccnc2c1`, the TGI is 31.2 µM.

With `CC(=O)N1N=C(N)CC1=O`, the TGI is > 100 µM. Same read-out and setting: next, `Cc1ccc(C(=O)CCC2C(=O)CC(C)(C)CC2=O)cc1`: > 100 µM. Regarding `N/C(=N\c1nc2ccccc2s1)NC(=O)Nc1ccccc1Cl`, the GI50 is 0.567 µM and the TGI is > 67.1 µM. Regarding `COC1CC2C=CC3C4OC2(/C(C)=C/C(C)C(C(C)O)OC1=O)C3C(O)C(C)C4OC(=O)c1ccc[nH]1` (stereo unspecified), the TGI was > 100 µM. Take `O=C1C(Cl)=C(Nc2cccc(O)c2)C(=O)N1c1cccc(Cl)c1`: the GI50 is 36.6 µM and the TGI was > 100 µM. Take `COc1cccc(-c2nc(-c3ccc(NC(=O)c4ccccc4)cc3)[nH]c2-c2ccnc(Br)c2)c1`: the GI50 is 3.97 µM and the TGI is > 100 µM. As for `CC(=O)Nc1ccc2oc(=O)c3ccccc3c2c1`, the TGI is > 100 µM. For `COc1ccc(C2SCC(=O)N2NC(=O)C(C)Oc2ccccc2Cl)cc1` (stereo unspecified), the TGI is > 100 µM.

For the compound `O=C(O)CCSC(=O)Nc1cccc([N+](=O)[O-])c1`, the TGI is > 100 µM. On to `COc1ccc(C(C#N)NCCCCCCNC(C#N)c2ccc(OC)cc2)cc1` (stereo unspecified), for which the TGI was > 100 µM.

Turning to `COc1cc2c(Nc3ccc(Br)cc3F)ncnc2cc1OCC1CCN(C)CC1`, the GI50 is 0.388 µM and 0.389 µM; the TGI was 7.91 µM and > 10 µM.

As to `O=c1ccccc(-c2ccc(-c3ccco3)cc2)c1O`, the GI50 is 0.605 µM and the TGI amounted to 59.9 µM. For the compound `S=C(c1c[nH]c2ccccc12)N1CCN(c2ccccc2)CC1`, the TGI was > 100 µM. With `O=C(CCc1ccccc1CO)NCCc1ccccc1`, the TGI is > 100 µM. In the case of `Cc1cccc2c1NC(=O)[C@@]21[C@H](C(=O)c2ccccc2)[C@]2(C(=O)Nc3ccccc32)[C@H]2CCCN21`, the GI50 is 44.4 µM and the TGI is > 100 µM. For the compound `O=C1/C(=C/c2ccccc2Br)COc2ccc(O)c(O)c21`, the GI50 is 2.01 µM and the TGI was found to be 5.42 µM.

Consider `O=S1c2ccccc2N=C(c2ccc(Cl)cc2)CC1c1cccs1` (stereo unspecified), for which the TGI was > 100 µM. Still for that read-out and setting: next, `CCCC1C(=O)C(CC)Cc2c(OC)ccc(OC)c21` (stereo unspecified): > 100 µM; `COc1ccccc1N=N/C(=N/NC(=O)c1ccc(C)cc1)c1ccc(N(CCC#N)CCC#N)cc1OC`: > 100 µM.

The values above are taken from PubChem BioAssay (NCI).
